Laboratory results taken from PubChem BioAssay AID488969 (Vanderbilt High Throughput Screening Facility, 2010).
In all, about 110,000 compounds were measured (“z-score”: median about -0.1, highest 2% from about 2 on). The list shows a part of the results.

Target: Metabotropic glutamate receptor 8 (Rattus norvegicus) (UniProt P70579)
Experiment: mGluR8 Gi/Go-coupled signaling modulation – cell-based, rat, thallium flux, HTS, primary screen (AID 488969)
Conditions: HEK293 rat mGluR8, GIRK (G protein-gated inwardly rectifying potassium channel) thallium flux, FluoZin2; at 10 µM; stronger effect = higher value; submaximal glutamate (EC20) added with thallium

UniProt P70579, sequence (P70579 whole entry, looked up): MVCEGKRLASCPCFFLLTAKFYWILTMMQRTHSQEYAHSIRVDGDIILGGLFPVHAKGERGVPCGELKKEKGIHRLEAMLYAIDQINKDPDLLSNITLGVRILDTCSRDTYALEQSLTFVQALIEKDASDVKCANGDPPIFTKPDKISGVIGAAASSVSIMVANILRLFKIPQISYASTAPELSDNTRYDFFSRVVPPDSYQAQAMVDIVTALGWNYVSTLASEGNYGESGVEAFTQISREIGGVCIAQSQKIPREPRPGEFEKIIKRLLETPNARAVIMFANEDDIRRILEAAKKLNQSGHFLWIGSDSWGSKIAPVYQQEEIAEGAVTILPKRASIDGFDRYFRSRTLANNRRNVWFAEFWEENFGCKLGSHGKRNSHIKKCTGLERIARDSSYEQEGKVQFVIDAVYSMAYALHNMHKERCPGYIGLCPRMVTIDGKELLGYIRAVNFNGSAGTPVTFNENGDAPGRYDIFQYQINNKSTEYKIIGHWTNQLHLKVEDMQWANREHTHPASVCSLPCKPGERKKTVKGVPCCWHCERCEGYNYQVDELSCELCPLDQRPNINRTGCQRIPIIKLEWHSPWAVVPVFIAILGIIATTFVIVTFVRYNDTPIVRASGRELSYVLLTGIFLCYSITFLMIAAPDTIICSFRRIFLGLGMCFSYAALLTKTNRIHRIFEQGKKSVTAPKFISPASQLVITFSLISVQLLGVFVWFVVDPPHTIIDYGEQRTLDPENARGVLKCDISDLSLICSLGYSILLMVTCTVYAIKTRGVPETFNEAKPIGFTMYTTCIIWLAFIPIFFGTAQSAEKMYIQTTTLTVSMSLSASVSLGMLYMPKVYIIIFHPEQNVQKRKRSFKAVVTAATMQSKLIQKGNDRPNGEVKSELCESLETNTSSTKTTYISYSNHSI

Q: O=S(=O)(Nc1ccc(S(=O)(=O)Nc2ccccc2)cc1)c1ccccc1 was tested. Which z-score did it give?
A: Its z-score is -0.31.

Q: With Cc1ccc(-c2noc(CCC(=O)N3CCCC3)n2)cc1 as the molecule, how does the z-score read?
A: The z-score was -0.236.

Q: For O=C(CCCCCN1C(=O)c2ccccc2C1=O)Nc1ccccc1, which z-score is on record?
A: The z-score was -0.0897.

Q: For CC(NC(=O)c1cccs1)C(c1cccs1)N1CCN(Cc2ccccc2)CC1 (stereo unspecified), which z-score is on record?
A: Its z-score is -0.533.

Q: With COc1ccc(CCNC(=O)COc2ccc(S(=O)(=O)NC3CCCCC3)cc2Cl)cc1 as the molecule, how does the z-score read?
A: Its z-score is -0.000925.

Q: How did the z-score turn out when Cn1nc(C(F)(F)F)c2cc(C(=O)NC3CC3)sc21 was run?
A: The z-score was 0.0929.

Q: Which z-score does the source give for C[N+](C)(C)CCNC(=O)c1c(O)c2c([nH]c1=O)CCCC2 here?
A: The z-score was 0.798.

Q: With CCc1nnc(NC(=O)c2ccc(-c3cccc(C(F)(F)F)c3)o2)s1 as the molecule, how does the z-score read?
A: Its z-score is -1.43.

Q: How did the z-score turn out when O=C(Nc1nccs1)C1CCN(S(=O)(=O)c2ccc(Cl)c(C(F)(F)F)c2)CC1 was run?
A: The z-score was 0.0753.

Q: CC(=O)N1CC2(C)CN(C(C)=O)CC(C)(C1)C2 was tested. Which z-score did it give?
A: Its z-score is -0.26.

Q: With CC(C)[C@H](NS(=O)(=O)c1ccccc1)C(=O)OCn1nnc2ccccc2c1=O as the molecule, how does the z-score read?
A: Its z-score is 0.23.

Q: Which z-score does the source give for Cc1ccc(-c2nn(-c3ccccc3)c3[nH]c(=O)c(CNCc4ccccc4)cc23)cc1 here?
A: Its z-score is -0.221.

Q: How did the z-score turn out when CCOC(=O)c1ccc(NC(=O)CC2NCCNC2=O)cc1 (stereo unspecified) was run?
A: The z-score was -0.0898.

Q: C=CCc1c(C)nc(SC)nc1Nc1ccc(C)cc1 was tested. Which z-score did it give?
A: Its z-score is -0.584.

Q: How did the z-score turn out when O=C(Cn1cnc2c(nnn2-c2ccc(F)cc2)c1=O)NCc1ccco1 was run?
A: The z-score was -0.127.

Q: How did the z-score turn out when Cc1nn2c3ccccc3nc2c2ccccc12 was run?
A: The z-score was -1.65.

Q: NC(=S)N/N=C/c1ccc(C(F)(F)F)cc1 was tested. Which z-score did it give?
A: Its z-score is 0.721.

Q: COc1ccc(C2CC23N=C(c2ccccc2)OC3=O)cc1 (stereo unspecified) was tested. Which z-score did it give?
A: The z-score was -0.00853.

Q: Cc1nn(-c2ccccc2)c(Cl)c1/C=C(\CC(=O)O)c1nc2ccccc2s1 was tested. Which z-score did it give?
A: Its z-score is 0.0315.

Q: How did the z-score turn out when O=C(c1ccc(Cl)c(Cl)c1)c1cnc(Nc2ccccc2)s1 was run?
A: Its z-score is -0.0234.

Q: How did the z-score turn out when FC(F)(F)c1nc2ccccc2n2c(-c3ccc(Cl)cc3)nnc12 was run?
A: The z-score was -0.021.

Q: How did the z-score turn out when O=C(O)c1ccc(NS(=O)(=O)c2ccc3nnn(O)c3c2)cc1 was run?
A: Its z-score is -0.361.

Q: With COc1cccc(N2CCN(C(=S)NCc3ccco3)CC2)c1 as the molecule, how does the z-score read?
A: Its z-score is -0.184.

Q: For CCOc1cc(/C=N/NS(=O)(=O)c2ccccc2)ccc1OS(=O)(=O)c1ccc(C)cc1, which z-score is on record?
A: The z-score was -0.352.

Q: With CCOn1c(SCC)nc2ccccc2c1=O as the molecule, how does the z-score read?
A: The z-score was -0.299.

Q: How did the z-score turn out when Cc1cc(NC(=O)C2CCCC2)n(-c2nc3ccccc3[nH]2)n1 was run?
A: The z-score was -0.232.

Q: For O=c1cc(Nc2ccc3c(c2)OCO3)[nH]c(=O)n1-c1ccc(Br)cc1, which z-score is on record?
A: The z-score was 0.146.

Q: O=C(CCN1C(=O)c2ccccc2C1=O)Nc1cccnc1 was tested. Which z-score did it give?
A: Its z-score is -0.201.

Q: CCc1ccc(C(=O)CSc2nnc(C)c(=O)[nH]2)cc1 was tested. Which z-score did it give?
A: The z-score was -0.00147.

Q: For O=C(NCC(=O)N(Cc1ccccc1)C(C(=O)NCC1CCCO1)c1ccccc1)c1cccs1 (stereo unspecified), which z-score is on record?
A: The z-score was -0.243.

Q: c1ccc2c(c1)nnn2-c1ncnc2sc3c(c12)CCCC3 was tested. Which z-score did it give?
A: Its z-score is 0.556.
